Measurements from ChEMBL document CHEMBL4888484, “Replenishing the malaria drug discovery pipeline: Screening and hit evaluation of the MMV Hit Generation Library 1 (HGL1) against asexual blood stage Plasmodium falciparum ,using a nano luciferase reporter read-out” (2022).
The whole screen tested about 150,000 compounds, of which about 540 (0.36%) showed an effect of 50% or more. The list shows a part of the results.

test system: Plasmodium falciparum; assay: Primary screen in NF54 nanoGlo assay, in single point, at 2uM, 72h; a lower Z score goes with more inhibition; type: functional, Erythrocyte; conditions: timepoint 72 hour

| SMILES | % Inhibition | Z score |
| --- | --- | --- |
| COc1cc([C@H]2CC(=O)Nc3nc(N)sc32)ccc1OCc1ccccc1Cl | 2% | -0.2 |
| CCc1ccc(-c2ccc(N(CC)c3cccc(C)c3)nn2)cc1S(N)(=O)=O | -21% | 2.5 |
| COc1cc(OC)cc(C(=O)Nn2cc(C(=O)NC[C@H]3CCCO3)c3ccccc3c2=O)c1 | 11% | -1.95 |
| COC1(OC)CCN(Cc2cc3c(cn2)OCCO3)C[C@@H]1O | 0% | 0.01 |
| Cc1ccc2c(Nc3cccc(F)c3)c(C(=O)N3CCCC3)cnc2n1 | -11% | 1.57 |
| C[C@@H]1CN(C(=O)c2ccc(C(F)F)o2)c2ncnn2C1 | -11% | 2.02 |
| Cc1c(CNC2CCC(C)CC2)c(C(=O)O)c(C)n1-c1ccc(Cl)cc1 (stereo unspecified) | -8% | 1.05 |
| O=S(=O)(N[C@H]1CO[C@H]2[C@@H]1OC[C@@H]2n1nnnc1Oc1ccc2c(c1)OCO2)c1ccc2ccccc2c1 | -7% | 1.2 |
| C[C@H](NC(=O)c1ccc(Br)c(O)c1)C1(N2CCOCC2)CCCC1 | 3% | -0.37 |
| COc1ccc(-c2cn[nH]c2C(C)C)c(OC)n1 | 3% | -0.39 |
| Cc1ccc(S(=O)(=O)Nc2nc3ccccc3nc2Nc2ccc3c(c2)OCO3)c(C)c1 | 31% | -3.53 |
| O=C(c1cccnc1)N1CCN(CCc2ccccc2)[C@@H]2CS(=O)(=O)C[C@@H]21 | 1% | -0.26 |
| CC(=O)Nc1c(-c2ccccn2)nsc1C(=O)NCc1cc(F)cc(F)c1 | -13% | 1.23 |
| NC[C@@H]1CN(c2nccc(C(F)F)n2)C[C@H]1c1ccccc1 | -11% | 1.4 |
| COc1cc(NC(=O)c2ccc(-n3nc(OCc4ccc(Cl)cc4)ccc3=O)cc2)cc(OC)c1 | -3% | 0.61 |
| O=C(c1cn2cc(Cl)ccc2n1)N1CCN(Cc2ccc3c(c2)OCO3)CC1 | -8% | 0.83 |
| Cc1c(Cl)cccc1NC(=O)[C@H](C)n1cnc2nc3c(cc2c1=O)CCCC3 | -7% | 0.85 |
| CO[C@@H]1CCC[C@@H]2CN(C(=O)NCCc3ccccc3)C[C@@H]21 | -3% | 0.27 |
| FC(F)c1cncc(-c2ncccc2N2CCCCC2)c1 | -7% | 0.71 |
| O=C(NC(=O)c1ccc(Cl)cc1)NC1(C(F)(F)F)OCCO1 | 3% | -0.56 |
| CCOc1ccccc1NC(=O)c1nc2c(=O)n(Cc3cccc(F)c3)c3cc(C)ccc3n2n1 | -2% | 0.27 |
| CCc1cnccc1C(=O)NCC(=O)C(C)C | 3% | -0.48 |
| O=C1CCN(C(=O)CCCc2ccc(Cl)c(Cl)c2)CCN1 | -6% | 0.73 |
| Cc1ccccc1Cn1c(C)c(N2CCOCC2)c(C)c1C(=O)NCc1ccc(F)cc1 | -1% | 0.18 |
| Cc1oc(C(C)C)cc1C(=O)N1CC[C@](C)(O)[C@H](O)C1 | -18% | 1.9 |
| O=C1NC[C@@H](C(=O)NCc2ccc(OC3CCCCC3)nc2)N1 | 0% | -0.01 |
| Cc1ccnc(CNC(=O)c2oc(C)nc2C)c1 | 8% | -0.74 |

| SMILES | % Inhibition | Z score |
| --- | --- | --- |
| CC(CCc1ccccc1)NC(=O)C1COc2ccccc2O1 (stereo unspecified) | -14% | 2.63 |
| CCc1ccc(NC(=O)Cn2nc3c(Oc4cc(C)cc(C)c4)nc4ccccc4n3c2=O)cc1 | -10% | 1.47 |
| CC(C(=O)c1ccccc1)C1(O)C(=O)N(CN2CCOCC2)c2ccccc21 (stereo unspecified) | 7% | -0.82 |
| COc1ccc(O)c([C@H](C)NCCCCn2ccnc2C)c1 | -8% | 0.84 |
| CC[C@H](C)NC(=O)C1CCN(S(=O)(=O)c2cc(-c3noc(C)n3)ccc2Cl)CC1 | -10% | 1.27 |
| c1ccc2c(c1)CC(N1CCC(c3nnc[nH]3)CC1)C2 | -12% | 1.09 |
| O=C([C@@H]1CC=CCC1)N1CC=C(c2ccccc2)CC1 | 2% | -0.32 |
| Cc1cc(N2CCC[C@@]3(CCC(=O)N(CCc4c[nH]cn4)C3)C2)ccn1 | 1% | -0.12 |
| O=C(Cc1nnc(-c2cnccn2)o1)NCc1ccccc1 | -11% | 1.14 |
| Cc1ccc([C@H]2CN(C(=O)CCn3ccc(C)n3)C[C@@H]2N(C)C)cc1 | 11% | -0.98 |
| COCCn1nnnc1[C@]1(N(C)C)CCCN(S(=O)(=O)c2cc(F)cc(F)c2)C1 | 7% | -1.2 |
| Cc1c(-c2noc(C(=O)NCCCc3ccccc3)n2)oc2c(C)cccc12 | -7% | 0.87 |
| Cc1cc(NC(=O)c2ccc(COc3ccc4ccccc4c3)o2)nn1C | 30% | -1.16 |
| Cc1ncsc1CCN(C)c1ncnc2[nH]ncc12 | -9% | 1.48 |
| CCCN(CCC)c1ccc(-c2nc(-c3ccccc3)no2)cn1 | -9% | 1.56 |
| O=C(Cc1cccc2ccccc12)NC1CC(O)C(CO)C1 (stereo unspecified) | -2% | 0.34 |
| N#CC1(c2nc(-c3nccc(N)n3)no2)CCCCC1 | 0% | -0.05 |
| CC(C)(C)NC(=O)CCC(=O)N1CC[C@H](n2cnc3ccccc32)C1 | -4% | 0.88 |
| CC[C@@H](C(=O)NCCCOC)N(c1ccc(C)cc1)S(C)(=O)=O | -12% | 1.1 |
| Cc1c(NC(=O)Cc2ccc(Cl)cc2)cccc1-c1nc2ncccc2o1 | -6% | 0.88 |
| O=C(NCCOc1cccc(F)c1)NCc1ccco1 | 2% | -0.24 |
| CCN1CCCCC1CNC(=O)NC1CCCC(C)C1C (stereo unspecified) | 8% | -0.96 |
| O=C(CN1CCC[C@H]1C(=O)O)NCc1cccs1 | -7% | 1.12 |
| Cc1cn(C2CCCCC2)nc1NC(=O)c1cncc(C)c1O | -10% | 1.68 |
| Cn1c(C(C)(C)C)nc2cc(NCc3ncc[nH]3)ccc21 | -4% | 0.37 |
| Cn1ccc2cc(CN3CCC([C@H](O)c4cccs4)CC3)ccc21 | -11% | 1.11 |
